Measurements taken from paper PMC4336329 (PLoS ONE, 2015).
The campaign covered roughly 310,000 compounds. About 2,200 (0.71%) showed an effect of 50% or more. Effects have a minus sign here. Some of the results follow.

Each molecule was assayed against human ether-à-go-go-related gene (hERG) potassium channel (human, UniProt Q12809) (assay: primary screen, population patch clamp on CHO cells stably expressing hERG).
Chain of human ether-à-go-go-related gene (hERG) potassium channel (Q12809 whole entry, looked up): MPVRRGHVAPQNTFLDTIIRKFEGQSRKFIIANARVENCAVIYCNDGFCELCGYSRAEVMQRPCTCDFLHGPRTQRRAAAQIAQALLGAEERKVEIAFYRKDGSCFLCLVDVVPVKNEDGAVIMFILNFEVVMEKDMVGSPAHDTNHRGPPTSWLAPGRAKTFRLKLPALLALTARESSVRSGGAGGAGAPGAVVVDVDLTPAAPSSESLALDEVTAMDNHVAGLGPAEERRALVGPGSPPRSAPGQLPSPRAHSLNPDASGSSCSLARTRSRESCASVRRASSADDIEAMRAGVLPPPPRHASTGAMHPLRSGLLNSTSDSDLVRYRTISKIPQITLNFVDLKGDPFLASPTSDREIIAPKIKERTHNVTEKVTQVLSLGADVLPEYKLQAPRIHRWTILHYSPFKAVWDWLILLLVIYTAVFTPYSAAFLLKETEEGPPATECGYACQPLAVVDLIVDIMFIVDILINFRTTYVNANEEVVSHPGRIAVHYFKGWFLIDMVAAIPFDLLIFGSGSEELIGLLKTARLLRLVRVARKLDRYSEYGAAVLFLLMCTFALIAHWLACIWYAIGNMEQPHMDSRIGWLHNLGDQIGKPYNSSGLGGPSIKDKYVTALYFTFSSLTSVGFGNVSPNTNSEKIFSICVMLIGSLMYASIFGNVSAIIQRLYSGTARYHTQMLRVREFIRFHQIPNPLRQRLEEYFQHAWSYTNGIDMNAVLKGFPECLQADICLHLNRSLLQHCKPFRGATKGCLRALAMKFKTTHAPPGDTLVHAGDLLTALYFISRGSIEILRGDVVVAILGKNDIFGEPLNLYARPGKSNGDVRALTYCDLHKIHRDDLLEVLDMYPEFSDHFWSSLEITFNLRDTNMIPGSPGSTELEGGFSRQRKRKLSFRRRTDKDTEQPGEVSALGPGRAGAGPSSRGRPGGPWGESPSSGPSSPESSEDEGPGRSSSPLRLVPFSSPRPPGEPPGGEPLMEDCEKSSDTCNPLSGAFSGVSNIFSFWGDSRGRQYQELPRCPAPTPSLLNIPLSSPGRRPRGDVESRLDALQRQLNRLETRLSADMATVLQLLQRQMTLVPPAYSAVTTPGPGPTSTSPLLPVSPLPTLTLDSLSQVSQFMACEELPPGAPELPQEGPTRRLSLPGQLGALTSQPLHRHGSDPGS

Row | SMILES | hERG current change (%, negative = inhibition) at 1uM [%]
1 | COC(=O)C1=C(c2ccc(S(C)(=O)=O)cc2)C[C@@H]2CC[C@H]1N2C(=O)N1CCCC1 | 8.15
2 | Cc1cc2nnc(SCC(=O)N3CCN(c4ccccc4)CC3)n2c(N)n1 | 14.1
3 | O=C(C1CCN(C2CCN(CC3CC=CCC3)CC2)CC1)N1CCOCC1 (stereo not shown) | 6.95
4 | OC(COc1ccc(Cl)cc1)CSc1ccccn1 (stereo not shown) | 16.1
5 | COC(=O)c1[nH]c2cccc(OC)c2c1NC(=O)CCN1CC(C)CC(C)C1 (stereo not shown) | -4.14
6 | CNCCc1c[nH]c2ccc(O)cc12.O=C(O)C(=O)O | 19.8
7 | CCC(/C=N/NC(=O)C1COc2ccccc2O1)CC (stereo not shown) | 8.97
8 | Cc1csc2nc(CNS(=O)(=O)c3ccc4c(c3)OCCO4)cn12 | 5.04
9 | CCOC(=O)C1CCCN(C(=O)c2cc3c(=O)n4ccccc4nc3s2)C1 (stereo not shown) | 5.53
10 | CC(C)CC(=O)CN1C(=O)C2(OCCO2)c2ccccc21 | 19.1
11 | O=C(Nc1ccc(Cl)c(Cl)c1)N(CCCN1CCOCC1)Cc1cccs1 | -41.8
12 | Cc1ccccc1NS(=O)(=O)c1ccc(C(=O)N2CCC2)cc1 | 12.3
13 | Cc1c(Cl)c(C(F)(F)F)nn1CC(=O)NCc1ccccc1 | 14.2
14 | COc1cccc(NC(=O)c2ccccc2N2C(=O)C3C4C=CC(C5CC45)C3C2=O)c1 (stereo not shown) | 12.1
15 | c1ccc(C2[C@H]3CN(CC4CCCCC4)[C@H](c4ccccc4)C34CC2(c2ccccc2)C4)cc1 (stereo partly shown) | 9.77
16 | Cn1cc(C(=O)c2ccccc2C(=O)O)cc1C(=O)C(Cl)(Cl)Cl | 10.1
17 | COC(=O)c1[nH]c2ccccc2c1NC(=O)/C=C/c1ccc2c(c1)OCO2 | 9.5
18 | CCC(C)[C@H](NC(=O)NCc1cccc(OC)c1)C(=O)OC (stereo partly shown) | 10.3
19 | CC(=O)c1nn(-c2ccc(C)cc2)cc1C(=O)c1cccc(Br)c1 | 10
20 | OC1CCN(c2ncnc3c2nnn3Cc2c(F)cccc2Cl)CC1 | 2.59
21 | CN(CCCC(=O)Nc1ccc(OC(F)F)cc1)S(=O)(=O)c1ccc(F)cc1 | -48.5
22 | COc1ccc(C(=O)O/N=C(\N)Cc2ccc(Cl)cc2)cc1OC | 3.31

Row | SMILES | hERG current change (%, negative = inhibition) at 1uM [%]
23 | COc1ccc(C(=O)NCc2nnc(SCC(=O)Nc3nc4ccccc4s3)o2)cc1OC | 10.5
24 | O=C(N/N=C/c1ccc(OC(F)F)cc1OC(F)F)c1cccc(S(=O)(=O)N2CCOCC2)c1 | -7.97
25 | C[C@H](NC(=O)c1nc[nH]c1C(=O)NCc1ccc(CNC(=O)OC(C)(C)C)cc1)c1ccccc1 | 9.77
26 | COc1ccc(-n2c(O)c(C(C)=NCCCn3ccnc3)c(=O)[nH]c2=O)cc1 | 7.06
27 | Cc1ccc(NC(=O)CN(C)C(=S)NC2CC2)cc1 | 15.5
28 | COc1cc(/C=N/Nc2nc(=O)[nH]nc2C)cc(OC)c1O | 9.86
29 | Nc1nnnn1CC(=O)N/N=C/c1ccccn1 | 16.7
30 | COc1ccc(N(CC(=O)N/N=C/c2ccco2)S(=O)(=O)c2ccccc2)cc1Cl | 3.85
31 | O=C(Nc1cc(C(F)(F)F)ccc1N1CCCC1)C1=COCCO1 | 19.4
32 | CCn1c(=O)c(=O)[nH]c2cc(C(=O)Nc3ccc(S(=O)(=O)N4CCCC4)cc3)ccc21 | 15
33 | O=C(Nc1cccn2ncnc12)c1cccc(C(F)(F)F)c1 | 10.5
34 | CCCNC(=O)CC(NS(=O)(=O)c1ccc(NC(C)=O)cc1)C(C)C (stereo not shown) | 10.5
35 | CCOC(=O)C1CCN(C(=S)NC2CC3C=CC2C3)CC1 (stereo not shown) | 3.95
36 | CCOc1cc(C(=O)Nc2nnc(CC)s2)ccc1OCC(=O)N1CCOCC1 | 13.3
37 | COc1ccc(OC)c(NC(=O)CC(Cc2ccccc2OC)C(=O)O)c1 (stereo not shown) | 15.3
38 | CCC(C)N(C(=O)Cn1nnc2ccccc21)C(C(=O)NCc1ccco1)c1cccc(OC)c1 (stereo not shown) | -2.59
39 | CN(C)c1ccc(/C=N/n2c(COc3ccccc3)n[nH]c2=S)cc1 | 19
40 | COc1ccc(S(=O)(=O)N2CCCCC2)cc1NC(=O)Cn1cnc2ccccc2c1=O | 12.3
41 | O=C1N/C(=N\S(=O)(=O)Cc2ccccc2)S/C1=C/c1cccc([N+](=O)[O-])c1 | 28.7
42 | CC1CN(S(=O)(=O)c2ccc(C(=O)N(CCCN(C)C)c3nc4c(Cl)cccc4s3)cc2)CC(C)O1.Cl (stereo not shown) | -8.33
43 | COc1ccc(C2=NCCn3nc4cc(C(F)(F)F)ccc4c32)cc1 | 3.19
44 | O=C(c1ccco1)N1CCCC(c2nc3c(nnn3Cc3ccc(Cl)cc3Cl)c(=O)[nH]2)C1 (stereo not shown) | 11.9

Row | SMILES | hERG current change (%, negative = inhibition) at 1uM [%]
45 | COc1ccc(-n2c(-c3ccc(OC)c(OC)c3)n[nH]c2=S)cc1 | 9.62
46 | CC(C)N=c1scc(-c2ccco2)n1/N=C/c1ccc(O)c(O)c1 | -5.94
47 | Cc1ccc2nc(/N=C(\N)NC(=O)NC3CCCCC3)nc(C)c2c1 | -0.339
48 | O=C(Cn1cc([N+](=O)[O-])ccc1=O)N1CCCc2ccccc21 | 14.1
49 | O=C(CN(Cc1ccc(F)cc1)C(=O)Cn1nnc2ccccc21)NCC1CCCO1 (stereo not shown) | 9.55
50 | COc1cc(S(=O)(=O)N(Cc2ccccn2)Cc2ccccc2Cl)ccc1-n1cnnn1 | 4.86
51 | O=C(OCC(=O)N1CCCC1)c1ccc(S(=O)(=O)Nc2ccccc2)cc1 | -0.807
52 | O=C(CNC(=O)c1ccccc1F)c1ccccc1 | 15.3
53 | CCCN(CCC)CC(O)CN(c1cc([N+](=O)[O-])ccc1OC)S(=O)(=O)c1ccccc1.Cl (stereo not shown) | -13.3
54 | CCN1CCN(c2nc(Nc3ccccc3F)nc(N)c2[N+](=O)[O-])CC1 | -15.7
55 | COCCN1C(=O)C(=O)/C(=C(/O)c2ccc(S(=O)(=O)N3CCCCC3)cc2)C1c1ccc(OC)c(OC)c1 (stereo not shown) | 5.26
56 | COc1ccc2nc(NC(=O)Nc3ccccc3)sc2c1 | 0.308
57 | CN(C)c1ccc(C(=O)N2CCNC(=O)C2CC(=O)Nc2ccc(F)cc2)cc1 (stereo not shown) | 11.7
58 | NC(=S)Nc1ncc(C(F)(F)F)cc1Cl | 8.78
59 | CCOC(=O)Cn1cc(C#N)c2cccc(CC)c21 | 7.9
60 | CC(=O)SCC(=O)N=c1sc2cc(F)ccc2n1C | 5.74
61 | Nc1nc(-c2ccc3c(c2)OCCO3)c(CC(=O)O)s1 | 15.7
62 | c1ccc(-c2cc3nccc(-c4ccccn4)n3n2)cc1 | 7.53
63 | CCOC(=O)c1ccc(NC(=S)N(CCCN2CCN(C)CC2)Cc2cccs2)cc1 | -7.16
64 | CC(NC(=O)[C@@H](NC(=O)[C@@H]1Cc2ccccc2CN1)C(C)C)c1ccccc1 (stereo partly shown) | 13.9
65 | O=C(NC(=S)NCCCN1CCOCC1)c1ccc([N+](=O)[O-])cc1 | 2.92
66 | CCOC(=O)N1CCC(NC(=O)c2oc3c(c2C)-c2[nH]ncc2CC3)CC1 | 16

Row | SMILES | hERG current change (%, negative = inhibition) at 1uM [%]
67 | COc1ccc(Cc2nnc(NC(=O)c3c(-c4ccccc4)noc3C)s2)cc1 | -5.73
68 | O=c1[nH]c(=O)n(Cc2ccco2)c2c1C(C(F)(F)F)(C(F)(F)F)N=C(C1CCCCC1)N2 | 4.51
69 | COc1ccc(S(=O)(=O)N2CCN(c3nn(C)c(=O)n(C)c3=O)CC2)cc1 | -13
70 | CC(=O)N1CCN=C1SCc1c(F)cccc1Cl | -2.41
71 | CC(C)(C)NC(=O)CN(C(=O)C1CSC(=O)C1)c1ccccc1F (stereo not shown) | -7.39
72 | O=c1cc(O)c2c(=O)n(-c3ccccc3)c3c(c2o1)CCCCCC3 | 6.79
73 | CCOC(=O)C(C)n1cnc2scc(-c3ccc(C)cc3)c2c1=O (stereo not shown) | 12.6
74 | Cc1cc(Oc2nc3ccccn3c(=O)c2/C=C(\C#N)C(=O)NC2CCS(=O)(=O)C2)ccc1Cl (stereo not shown) | 12
75 | CCN1C(=O)[C@H]2[C@@H](c3ccc(SC4CCCCC4)cc3)N[C@@](CC(C)C)(C(=O)OC)[C@H]2C1=O.O=C(O)C(F)(F)F | 7.81
76 | CCOC(=O)C1=C(N)OC2=C(C(=O)CCC2)C1c1cccnc1 (stereo not shown) | 11.8
77 | CC1(C)CC(=O)C2=C(C1)N(C1CCCCC1)C(=O)C2(O)C(F)(F)F (stereo not shown) | 8.42
78 | CC(=O)Nc1c(OC(C)=O)ccc2c(C)cc(=O)oc12 | 5.64
79 | O=C(Cc1c(F)cccc1Cl)N1CCN(C(=O)c2ccco2)CC1 | 3.01
80 | O=C(O)C12C3CCCC1C32c1ccccc1 (stereo not shown) | 20.1
81 | Cc1ccc(CNC(=O)C2CCC(=O)N2Cc2ccc(F)cc2)cc1 (stereo not shown) | 8.23
82 | O=C(OCc1cccc([N+](=O)[O-])c1)c1cc(=O)[nH]c2ccccc12 | 12.9
83 | CC(=O)N1CCN(C(=O)c2ccc(C(=O)c3ccccc3)cc2)CC1 | 14.4
84 | O=C(COc1ccc2c3c(c(=O)oc2c1)CCCC3)N1CCN(c2ccccc2)CC1 | 13.9
85 | Cc1cc2cc3c(cc2nc1SCC(=O)Nc1nc(C)c(C)s1)OCO3 | 6.12
